# Source: PMC9911399, “Two distinct binding modes provide the RNA-binding protein RbFox with extraordinary sequence specificity”
# Changes are numbered by the printed parent chain; changes in the protein carry UniProt numbers. Some of the results follow.
# B1: AAUGAAC (DNA:RNA)
# RNA: GGGAGACCGGAAUUCAGAUUGUCCAAUGAACUUAAAUCCCGUCGUAGCCACCA
# DNA 1: CAATCTGAATTCCGGTCTCCC
# DNA 2: TGGTGGCTACGACGGGATT
# B2: AUCCCAC (DNA:RNA)
# RNA: B1 RNA with A26U, U27C, G28C, A29C
# DNA 1: CAATCTGAATTCCGGTCTCCC
# DNA 2: TGGTGGCTACGACGGGATT
# B3: UGUGAUC (DNA:RNA)
# RNA: B1 RNA with A25U, A26G, A30U
# DNA 1: CAATCTGAATTCCGGTCTCCC
# DNA 2: TGGTGGCTACGACGGGATT
# B4: CCGGGGC (DNA:RNA)
# RNA: B1 RNA with A25C, A26C, U27G, A29G, A30G
# DNA 1: CAATCTGAATTCCGGTCTCCC
# DNA 2: TGGTGGCTACGACGGGATT
# B5: GCCGGGC (DNA:RNA)
# RNA: B1 RNA with A25G, A26C, U27C, A29G, A30G
# DNA 1: CAATCTGAATTCCGGTCTCCC
# DNA 2: TGGTGGCTACGACGGGATT
# B6: AACAAGG (DNA:RNA)
# RNA: B1 RNA with U27C, G28A, A30G, C31G
# DNA 1: CAATCTGAATTCCGGTCTCCC
# DNA 2: TGGTGGCTACGACGGGATT
# B7: CCCCGCU (DNA:RNA)
# RNA: GGGAGACCGGAAUUCAGAUUGUCCCCCCGCUUUAAAUCCCGUCGUAGCCACCA
# DNA 1: CAATCTGAATTCCGGTCTCCC
# DNA 2: TGGTGGCTACGACGGGATT
# B8: AACCCGA (DNA:RNA)
# RNA: B1 RNA with U27C, G28C, A29C, A30G, C31A
# DNA 1: CAATCTGAATTCCGGTCTCCC
# DNA 2: TGGTGGCTACGACGGGATT
# B9: UUUGGUU (DNA:RNA)
# RNA: B1 RNA with A25U, A26U, A29G, A30U, C31U
# DNA 1: CAATCTGAATTCCGGTCTCCC
# DNA 2: TGGTGGCTACGACGGGATT
# B10: AUGUUCG (DNA:RNA)
# RNA: B1 RNA with A26U, U27G, G28U, A29U, A30C, C31G
# DNA 1: CAATCTGAATTCCGGTCTCCC
# DNA 2: TGGTGGCTACGACGGGATT
# B11: GUGGCGC (DNA:RNA)
# RNA: B1 RNA with A25G, A26U, U27G, A29C, A30G
# DNA 1: CAATCTGAATTCCGGTCTCCC
# DNA 2: TGGTGGCTACGACGGGATT
# B12: CCCUAAU (DNA:RNA)
# RNA: B7 RNA with C28U, G29A, C30A
# DNA 1: CAATCTGAATTCCGGTCTCCC
# DNA 2: TGGTGGCTACGACGGGATT
# B13: CACAGGC (DNA:RNA)
# RNA: B7 RNA with C26A, C28A, C30G, U31C
# DNA 1: CAATCTGAATTCCGGTCTCCC
# DNA 2: TGGTGGCTACGACGGGATT
# B14: CUAUGUC (DNA:RNA)
# RNA: B7 RNA with C26U, C27A, C28U, C30U, U31C
# DNA 1: CAATCTGAATTCCGGTCTCCC
# DNA 2: TGGTGGCTACGACGGGATT
# B15: ACGUCAC (DNA:RNA)
# RNA: B1 RNA with A26C, U27G, G28U, A29C
# DNA 1: CAATCTGAATTCCGGTCTCCC
# DNA 2: TGGTGGCTACGACGGGATT
# B16: CCUAGAU (DNA:RNA)
# RNA: B7 RNA with C27U, C28A, C30A
# DNA 1: CAATCTGAATTCCGGTCTCCC
# DNA 2: TGGTGGCTACGACGGGATT
# B17: CUCCCGG (DNA:RNA)
# RNA: B7 RNA with C26U, G29C, C30G, U31G
# DNA 1: CAATCTGAATTCCGGTCTCCC
# DNA 2: TGGTGGCTACGACGGGATT
# B18: UCCGUUC (DNA:RNA)
# RNA: B1 RNA with A25U, A26C, U27C, A29U, A30U
# DNA 1: CAATCTGAATTCCGGTCTCCC
# DNA 2: TGGTGGCTACGACGGGATT
# B19: GACGACU (DNA:RNA)
# RNA: B1 RNA with A25G, U27C, A30C, C31U
# DNA 1: CAATCTGAATTCCGGTCTCCC
# DNA 2: TGGTGGCTACGACGGGATT
# B20: UAUAUCC (DNA:RNA)
# RNA: B1 RNA with A25U, G28A, A29U, A30C
# DNA 1: CAATCTGAATTCCGGTCTCCC
# DNA 2: TGGTGGCTACGACGGGATT
# B21: UGGACUA (DNA:RNA)
# RNA: GGGAGACCGGAAUUCAGAUUGUCCUGGACUAUUAAAUCCCGUCGUAGCCACCA
# DNA 1: CAATCTGAATTCCGGTCTCCC
# DNA 2: TGGTGGCTACGACGGGATT
# B22: UUAUCCU (DNA:RNA)
# RNA: B7 RNA with C25U, C26U, C27A, C28U, G29C
# DNA 1: CAATCTGAATTCCGGTCTCCC
# DNA 2: TGGTGGCTACGACGGGATT
# B23: AGAACUG (DNA:RNA)
# RNA: B21 RNA with U25A, G27A, A31G
# DNA 1: CAATCTGAATTCCGGTCTCCC
# DNA 2: TGGTGGCTACGACGGGATT
# B24: GAGAACC (DNA:RNA)
# RNA: B1 RNA with A25G, U27G, G28A, A30C
# DNA 1: CAATCTGAATTCCGGTCTCCC
# DNA 2: TGGTGGCTACGACGGGATT
# B25: GCUGGAA (DNA:RNA)
# RNA: B1 RNA with A25G, A26C, A29G, C31A
# DNA 1: CAATCTGAATTCCGGTCTCCC
# DNA 2: TGGTGGCTACGACGGGATT
# B26: AGAAAUU (DNA:RNA)
# RNA: B21 RNA with U25A, G27A, C29A, A31U
# DNA 1: CAATCTGAATTCCGGTCTCCC
# DNA 2: TGGTGGCTACGACGGGATT
# B27: AAACUCG (DNA:RNA)
# RNA: B1 RNA with U27A, G28C, A29U, A30C, C31G
# DNA 1: CAATCTGAATTCCGGTCTCCC
# DNA 2: TGGTGGCTACGACGGGATT
# B28: CGAGACG (DNA:RNA)
# RNA: B1 RNA with A25C, A26G, U27A, A30C, C31G
# DNA 1: CAATCTGAATTCCGGTCTCCC
# DNA 2: TGGTGGCTACGACGGGATT
# B29: GCAAGCG (DNA:RNA)
# RNA: B7 RNA with C25G, C27A, C28A, U31G
# DNA 1: CAATCTGAATTCCGGTCTCCC
# DNA 2: TGGTGGCTACGACGGGATT
# B30: AAUAGGG (DNA:RNA)
# RNA: B1 RNA with G28A, A29G, A30G, C31G
# DNA 1: CAATCTGAATTCCGGTCTCCC
# DNA 2: TGGTGGCTACGACGGGATT
# B31: UACCCUG (DNA:RNA)
# RNA: B21 RNA with G26A, G27C, A28C, A31G
# DNA 1: CAATCTGAATTCCGGTCTCCC
# DNA 2: TGGTGGCTACGACGGGATT
# Target: T1, RBFOX1 RRM RbFoxmut (Fox-RRM*) (Homo sapiens, UniProt Q9NWB1 109-208, R118D;E147R;N151S;E152T)
# T1 sequence: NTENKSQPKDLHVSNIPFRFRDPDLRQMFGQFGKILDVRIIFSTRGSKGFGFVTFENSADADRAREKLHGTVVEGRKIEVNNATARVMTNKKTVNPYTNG
# Assay: EMSA; HiTS-Eq, 1 nM pool, 10 min; buffer printed only for the single-RNA assays: 10 mM Tris pH 7.5, 150 mM NaCl, 3.4 mM EDTA, 0.001% NP-40, 30 C
# Details: tags: His6 N-terminal (pET28a); label: 5' 32P
# Method in brief: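 Purified RbFox RRM (wild type or mutant) was equilibrated for 10 min in 50 µL with 1 nM of a 5′-radiolabelled pool of RNA with 7 randomized nucleotides, its flanks annealed to DNA oligonucleotides, across increasing protein concentrations. Free RNA was separated by 8% native PAGE, excised, reverse-transcribed, PCR-barcoded and sequenced on an Illumina HiSeq 2500. Relative association constants came from read-count changes of each variant against the control reaction, normalised to the cognate motif.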
row,Binder,binding signal
1,B1,0.0901 KA relative to UGCAUGU
2,B2,0.0711 KA relative to UGCAUGU
3,B3,0.395 KA relative to UGCAUGU
4,B4,0.101 KA relative to UGCAUGU
5,B5,0.101 KA relative to UGCAUGU
6,B6,0.0693 KA relative to UGCAUGU
7,B7,0.0902 KA relative to UGCAUGU
8,B8,0.0618 KA relative to UGCAUGU
9,B9,0.098 KA relative to UGCAUGU
10,B10,0.412 KA relative to UGCAUGU
11,B11,0.135 KA relative to UGCAUGU
12,B12,0.0718 KA relative to UGCAUGU
13,B13,0.078 KA relative to UGCAUGU
14,B14,0.179 KA relative to UGCAUGU
15,B15,0.0789 KA relative to UGCAUGU
16,B16,0.0917 KA relative to UGCAUGU

row,Binder,binding signal
1,B17,0.0807 KA relative to UGCAUGU
2,B18,0.0449 KA relative to UGCAUGU
3,B19,0.0456 KA relative to UGCAUGU
4,B20,0.0785 KA relative to UGCAUGU
5,B21,0.057 KA relative to UGCAUGU
6,B22,0.0814 KA relative to UGCAUGU
7,B23,0.0709 KA relative to UGCAUGU
8,B24,0.0646 KA relative to UGCAUGU
9,B25,0.104 KA relative to UGCAUGU
10,B26,0.0606 KA relative to UGCAUGU
11,B27,0.0716 KA relative to UGCAUGU
12,B28,0.0958 KA relative to UGCAUGU
13,B29,0.0753 KA relative to UGCAUGU
14,B30,0.0766 KA relative to UGCAUGU
15,B31,0.0716 KA relative to UGCAUGU
